The record followed here is ChEMBL document CHEMBL4888484, “Replenishing the malaria drug discovery pipeline: Screening and hit evaluation of the MMV Hit Generation Library 1 (HGL1) against asexual blood stage Plasmodium falciparum ,using a nano luciferase reporter read-out” (2022).

Among all 150,000 compounds or so, about 540 (0.36%) showed an effect of 50% or more. The list shows a part of the results.

This assay relates to Plasmodium falciparum. The assay can be described thus: Primary screen in NF54 nanoGlo assay, in single point, at 2uM, 72h; a lower Z score goes with more inhibition. Format: functional, Erythrocyte. Conditions: timepoint 72 hour.
Regarding `CCOc1ccc(CN2C(=O)c3cc(-c4ccccc4)nn3C[C@@]2(C)C(=O)NCc2ccccc2OC)cc1`, the % Inhibition – broadly, the relative decrease from the control value, in per cent – is -1% and the Z score is on record as 0.08.
Consider `CCCCn1nc(C(C)C)nc1CCc1ccncc1`, for which the “% Inhibition” value is recorded as -13% and the Z score stood at 1.23.
For the compound `Cc1cnc(-c2noc(C[C@H]3CCc4ccccc43)n2)nc1`, the “% Inhibition” value was -1% and the Z score was 0.08.
For `O=C(N[C@H]1CCCCNC1=O)c1coc(COc2cccc(C(F)(F)F)c2)n1`, in that order: 7% and -1.04.
For `Cc1nc(-c2cccc(C(=O)NCCCC[C@H]3CCCO3)c2)sc1C`, in that order: -12% and 1.32.
For `CC1(C)C(c2ccccc2)=NO[C@@H]1N1CCOCC1`, the “% Inhibition” value was determined as 44% and the Z score is -1.59.
For `Cc1nc(N)sc1-c1ccn(-c2cccc(F)c2)n1` the same measures were -5% and 0.66.
Turning to `O=C1CC2CCC(CN1)N2C(=O)c1ccoc1Cl` (stereo not drawn), the “% Inhibition” value is recorded as -1% and the Z score turned out to be 0.15.
For `Cc1c(O)cccc1C(=O)N1CCOC[C@@H](CN(C)C)C1`, in that order: -15% and 1.98.
For `CCn1c(CN2CCNCC2)nc2cc(S(=O)(=O)N3CCCCC3)ccc21` the same measures were -5% and 0.5.
For `O=C(Nc1ccc(-c2nc3ncccc3o2)cc1)c1ccc(OCc2ccccc2)cc1`, in that order: -23% and 3.74.
`O=C(CCC(F)(F)F)Nc1ccc2sncc2c1`: the “% Inhibition” value was -13% and the Z score is 1.97.
Regarding `Cc1nc(NC2CC2)sc1C(=O)NCc1ccco1`, the “% Inhibition” value is 3% and the Z score was -0.31.
For `O=c1[nH]c2nc(N3CCN(c4ncccn4)CC3)ncc2c(=O)n1-c1ccc2c(c1)OCO2` the same measures were -4% and 0.57.
For `COc1cc(NS(C)(=O)=O)c(OC)cc1Cl`, in that order: -13% and 2.43.
For `CCCN(Cc1[nH]cc(C)c(=O)c1C)[C@H]1CCCC[C@@H]1O`, in that order: -6% and 0.99.
For the compound `CCc1ccc(CN(C)[C@H]2CCCc3c2cnn3C)o1`, the “% Inhibition” value is given as -1% and the Z score is 0.15.
For `O=C(NCc1ccccc1)N[C@H]1CO[C@H]2[C@@H]1OC[C@@H]2n1cc(-c2ccccn2)nn1`, in that order: 15% and -1.77.
For `CN(C)c1cccc([C@@H]2CCCN2C(=O)Nc2ccc3c(c2)N(C)CCO3)c1`, in that order: -14% and 1.81.
Take `CCOc1cccc(CCC(=O)N2CCN(C(=O)c3cc(C)[nH]n3)C[C@H]2C)c1`: the “% Inhibition” value is reported as -7% and the Z score amounted to 1.08.
For `COc1ccc(-n2ccnc(NC(=O)c3ccncc3)c2=O)cc1OC` the same measures were -10% and 1.34.
Turning to `CNC(=O)C1C2CCC(C2)N1S(=O)(=O)c1ccc2c(c1)OCCO2` (stereo not drawn), the “% Inhibition” value is recorded as -3% and the Z score was found to be 0.5.
Regarding `CC(C)(C(=O)O)[C@H]1CCCN(C(=O)C2CCC2)C1`, the “% Inhibition” value is -13% and the Z score worked out at 1.19.
Consider `O=C(C1CCN(S(=O)(=O)c2ccc(-c3noc(-c4ccc(Cl)cc4Cl)n3)cc2)CC1)N1CCCC1`, for which the “% Inhibition” value is -1% and the Z score was determined as 0.15.
For `Cc1nc(-n2ccc3ccccc32)sc1C(=O)O`, in that order: 9% and -1.52.
As to `CC(C)c1nc2ccc(NC(=O)N[C@H]3CCS(=O)(=O)C3)cc2s1`, the “% Inhibition” value amounted to 7% and the Z score is recorded as -0.87.
As for `Cc1nccc(O)c1OCC(=O)Nc1ccncc1`, the “% Inhibition” value is on record as -2% and the Z score was determined as 0.2.
For `O=C(NC1CCCN(c2cccc(F)c2)C1)C1CCS(=O)(=O)C1` (stereo not drawn), in that order: -1% and 0.11.
On to `S=c1cc(-c2ccccc2)n(CCCc2ccccc2)c2c1CCCC2`, for which the “% Inhibition” value is -6% and the Z score is reported as 0.85.
As for `CCCn1nccc1NC(=O)N[C@@]1(C)CCS(=O)(=O)C1`, the “% Inhibition” value is listed as -11% and the Z score amounted to 1.61.
For `O=C(NCc1ccccc1)N1CCC[C@@](F)(C(=O)NCc2cccnc2)C1` the same measures were -9% and 0.77.
For `CC(C)(C)n1cc(CS(=O)(=O)CC2CCC3CC3C2)cn1` (stereo not drawn), in that order: -6% and 1.05.
For the compound `Cc1cc(CS(=O)(=O)NCCc2c(C)noc2C)no1`, the “% Inhibition” value is reported as -3% and the Z score was found to be 0.23.
For `C[C@@H]1CN(Cc2ccc(OC(F)F)c(Cl)c2)CC(C(N)=O)O1` (stereo partly drawn), in that order: -1% and 0.11.
Take `CCC(=O)N1CC[C@H]2CC(=O)Nc3ccc(-c4cnn(C)c4)cc3OCC[C@H]2C1`: the “% Inhibition” value was -1% and the Z score was 0.18.
For `O=C1CN(C(=O)Cn2nnc3ccccc3c2=O)c2ccccc2N1`, in that order: -13% and 2.5.
On to `CCN(C(=O)c1cccc(-c2nc(C)nc3ccccc23)c1)[C@H]1COC[C@@H]1O`, for which the “% Inhibition” value came out at 1% and the Z score was -0.09.
For `Cc1c(Cc2ccccc2)c(=O)n2nc(-c3ccccc3)nc2n1CC(=O)NC[C@H]1CCCO1`, in that order: 19% and -2.35.
For `Fc1ccc(/C=C/c2nc3c(cnn3Cc3cccnc3)[nH]2)cc1` the same measures were 1% and -0.15.
For `COc1ccc(CN2CCC3(CC[C@@H]3O)CC2)cc1OC` the same measures were -11% and 1.53.
Take `O=C(O)[C@H](CC1CCCCC1)N1Cc2ccccc2C1=O`: the “% Inhibition” value is listed as -10% and the Z score is reported as 1.46.
For `Cc1cc(=O)n2cc(Br)ccc2n1`, in that order: 26% and -2.9.
For `NC(=O)Cn1ccnc1C1CCN(c2nnc(-c3ccccc3)s2)CC1`, in that order: 4% and -0.7.
For `CN1C(=O)CN(C[C@H]2COc3ccccc3O2)C(=O)c2ccccc21` the same measures were -25% and 3.36.
Regarding `Cc1nc([C@H](C)NS(=O)(=O)c2cccc3nsnc23)n[nH]1`, the “% Inhibition” value is -8% and the Z score is reported as 1.43.
For `CNc1nc(Nc2ccc(C)c(C)c2)c2nccnc2n1` the same measures were -2% and 0.41.
With `Cc1ccc(CCNC(=O)N2CCCC[C@H]2c2nnc3n2CCCC3)c(C)c1`, the “% Inhibition” value was -7% and the Z score came out at 1.15.
With `CC(=O)N(c1nc(C)c(C(=O)Nc2ncc(C)s2)s1)C(C)C`, the “% Inhibition” value turned out to be 2% and the Z score is recorded as -0.34.
For `O[C@@H](c1ccncc1)c1ccc2c(c1)OCO2`, in that order: -16% and 2.21.
For `COCCN1CCC[C@H](c2nc(C)nn2Cc2ccc(Cl)cc2)C1` the same measures were 1% and -0.18.
`COc1ccccc1N1CCN(C(=O)Cc2oc(-c3ccccc3)nc2CC(C)C)CC1`: the “% Inhibition” value was -3% and the Z score worked out at 0.5.
Take `O=C(NC1CCOCC1)N(Cc1ccsc1)CC(F)(F)F`: the “% Inhibition” value is reported as -8% and the Z score is reported as 0.96.
For `CCN1CC2(CCN(CCCO)CC2)C[C@@H](c2ccccc2)C1=O`, in that order: -8% and 1.15.
`CC(C)[C@H](CCO)NCc1ccc(F)c(C#N)c1`: the “% Inhibition” value is -10% and the Z score amounted to 1.8.
